Over roughly 33,000 sequences, “E-score (-0.5 to 0.5)” has its median near -0.012; the highest 2% begin near 0.27. This is one part of the list.
Molecular target: T1, Vhr1 (UniProt P40522)
T1 sequence: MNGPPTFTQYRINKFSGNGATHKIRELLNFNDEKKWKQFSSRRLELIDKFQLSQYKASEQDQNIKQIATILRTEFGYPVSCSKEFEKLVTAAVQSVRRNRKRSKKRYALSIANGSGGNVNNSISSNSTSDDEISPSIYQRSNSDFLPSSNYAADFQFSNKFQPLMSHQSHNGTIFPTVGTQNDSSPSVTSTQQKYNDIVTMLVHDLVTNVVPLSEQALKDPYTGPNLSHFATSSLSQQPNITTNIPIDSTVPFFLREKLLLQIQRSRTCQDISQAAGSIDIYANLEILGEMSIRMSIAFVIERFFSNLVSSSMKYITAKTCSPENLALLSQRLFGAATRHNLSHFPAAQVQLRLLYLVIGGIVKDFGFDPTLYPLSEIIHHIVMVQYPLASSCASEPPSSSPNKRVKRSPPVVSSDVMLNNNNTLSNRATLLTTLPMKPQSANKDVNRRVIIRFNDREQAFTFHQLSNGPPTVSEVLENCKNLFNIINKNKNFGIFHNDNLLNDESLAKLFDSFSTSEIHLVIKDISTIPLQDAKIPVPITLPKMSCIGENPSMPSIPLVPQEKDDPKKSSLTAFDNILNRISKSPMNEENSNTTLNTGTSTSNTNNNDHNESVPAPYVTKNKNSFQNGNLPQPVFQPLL
Experiment: PBM E-score (8-mer binding enrichment) (E-score (-0.5 to 0.5)); higher = stronger / more preferred TF binding; most listed sequences are background and not binding sites
Conditions: protein concentration: 200 nM; construct: GST-full length
Experimental: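 Universal 'all 10-mer' protein binding microarrays (Agilent AMADID 015681) probed with GST-tagged S. cerevisiae TFs (full-length or DBD) made by in vitro transcription/translation (PURExpress), about 100-200 nM. Bound TF was detected with fluorescent anti-GST. Each ungapped 8-mer (which stands for itself and its reverse complement) is scored by the PBM enrichment score (E-score), a modified Wilcoxon-Mann-Whitney statistic from -0.5 to +0.5, computed with the Universal PBM Analysis Suite. Scale: above 0.35 generally sequence-specific binding.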

| Sequence | PBM E-score |
| --- | --- |
| CCAGGCAA | -0.034 |
| CACGGGCA | -0.0366 |
| CAGTAACC | 0.144 |
| GGTTATCA | 0.141 |
| AACTTTGT | -0.0285 |
| CTTCTGGC | -0.0705 |
| ATTCCCCA | 0.0406 |
| GCGTCACA | -0.05 |
| ACGTCGGC | -0.148 |
| CCTCCAAA | -0.00038 |
| AGTAAGAG | -0.108 |
| CACACCGC | 0.235 |
| AACATAGG | 0.0129 |
| TAAACTGA | 0.0209 |
| GATTCTAA | -0.0226 |
| AAATCGGA | -0.202 |
| GTCATTGA | 0.0398 |
| AAGTCCGG | -0.179 |
| ACCGCACA | 0.14 |
| ACCTATTC | -0.0906 |
| AAAGGCTA | -0.0728 |
| AGCTGACA | 0.0633 |
| AGCGGCCT | 0.114 |
| CCGTATTC | -0.00198 |
| GCTAAGTA | -0.0272 |

| Sequence | PBM E-score |
| --- | --- |
| CCTTTGCA | -0.263 |
| ACAAGGGA | -0.219 |
| ACGCTCGA | -0.268 |
| AGTTGTAG | -0.126 |
| GCTGCGCA | 0.0463 |
| TACGGCCA | -0.127 |
| GCGAGAAC | -0.0264 |
| GCATCCGA | -0.207 |
| AGTCGACC | -0.0312 |
| ATGGGCAG | 0.0732 |
| CCCGAAGA | -0.172 |
| CCAAACGA | 0.00579 |
| GCCTAGGA | -0.3 |
| CAATTGAG | 0.0674 |
| CTGCTTGC | -0.0439 |
| ACACCCCG | 0.0533 |
| ACAGCACA | 0.221 |
| CGGCTTTA | -0.0613 |
| GCCCCGCA | -0.0969 |
| ACTTAGCT | -0.177 |
| ATCTGTAA | 0.0177 |
| AACTAACG | 0.0239 |
| ACCTGTCT | 0.0957 |
| ACGGAGCT | -0.246 |
| ATTTTCTG | -0.157 |

| Sequence | PBM E-score |
| --- | --- |
| AAGCCCCA | -0.165 |
| ATAACTGC | -0.0668 |
| AGCAAGTC | 0.121 |
| ATCTATCG | -0.0852 |
| GGACTAAA | -0.248 |
| CGATCGGC | 0.0035 |
| AAAGTCGC | 0.137 |
| AATCAGAG | 0.0674 |
| CGGACTGA | 0.152 |
| GTAACACA | 0.145 |
| AACAGTAG | 0.0386 |
| CGCCCCTA | 0.0695 |
| CAAGAGAA | -0.112 |
| ACGACGTC | -0.0838 |
| CGTACTGA | 0.0639 |
| GTTGATGA | 0.184 |
| TATATAAA | 0.112 |
| ACCTCACC | 0.0749 |
| CATTCTCA | 0.169 |
| ACTCATGA | 0.369 |
| CACGGCCG | 0.118 |
| GATTTTGA | 0.0345 |
| AATTTATG | 0.0668 |
| AGGACGAC | -0.0774 |
| CATACGCA | 0.133 |

| Sequence | PBM E-score |
| --- | --- |
| TATAATAA | -0.101 |
| AGACCTTA | 0.0612 |
| AGATTACG | 0.0146 |
| TTTCCAAA | -0.277 |
| CCAATGGG | -0.103 |
| CACGTTCC | 0.00696 |
| ACCGGTTC | -0.221 |
| CATCTAGC | -0.146 |
| ATGAAGCG | -0.136 |
| CGCGACGA | 0.0448 |
| CAAGCTAG | -0.166 |
| CAAACACA | 0.17 |
| AGGTCGCC | -0.21 |
| AGAGTAGA | -0.324 |
| CGAAAATA | -0.0529 |
| GAGAGTTA | -0.0165 |
| ATCTCTTC | -0.171 |
| ACTCGCGC | 0.273 |
| AGATCAGC | 0.0954 |
| CCATTACC | 0.0744 |
| AAACTTAT | 0.153 |
| AGGCAAGA | -0.192 |
| TGGGTCAA | 0.147 |
| CTTTATTA | 0.00555 |
| CGACGACG | -0.181 |

| Sequence | PBM E-score |
| --- | --- |
| CATCCGCA | 0.0314 |
| GTGTTGGA | -0.0315 |
| CACCTTAA | -0.0968 |
| CGGGTCAA | 0.0718 |
| CATCGTAC | 0.105 |
| GTCGACAC | 0.127 |
| TACGTAAA | -0.293 |
| AATTATGG | -0.112 |
| TGGTCAAA | -0.123 |
| CCAGCCCC | 0.0424 |
| TGTGAACA | 0.095 |
| AACTAAGG | -0.0856 |
| CGACCCTC | -0.0226 |
| GGCTTTGA | -0.188 |
| AAGGCGTG | -0.0528 |
| GACGCCCA | 0.131 |
| AGGCGAAC | -0.144 |
| GAGAAGCA | -0.0414 |
| CTAATAAA | 0.0021 |
| CCGTTAGG | -0.201 |
| AGGCCAAT | -0.175 |
| AGCTAACA | -0.0232 |
| CAATAGAC | 0.116 |
| ATCCCTAC | 0.0917 |
| GAGAGGGA | -0.34 |

| Sequence | PBM E-score |
| --- | --- |
| ACATCCCA | -0.105 |
| CAAGTCCG | -0.138 |
| AAATATGT | 0.0267 |
| AAAATACT | 0.00078 |
| AGGTCTAA | -0.0405 |
| ACATGCCC | -0.0385 |
| CCCGTAGA | -0.176 |
| ACCACGGT | -0.152 |
| ACAATCGC | 0.146 |
| GTCAGCGA | -0.0325 |
| AATCAGGG | 0.133 |
| ACGGGACG | -0.169 |
| GCACCCCA | 0.151 |
| ATGAATTG | 0.0034 |
| ATATTCAG | 0.17 |
| CCCACCAG | 0.123 |
| TACGCGAA | -0.048 |
| CATGATGA | 0.254 |
| AAGGCGGT | 0.105 |
| AGGCTAGG | -0.16 |
| TTGCACAA | -0.00471 |
| CGATCATC | -0.0167 |
| AGCATGTG | 0.0322 |
| GGAACGTA | -0.191 |
| GCATTGCC | -0.161 |

| Sequence | PBM E-score |
| --- | --- |
| CGCGGAAG | -0.107 |
| AATAGTTC | -0.188 |
| ACCGGTGC | -0.0686 |
| AATAACTC | 0.0662 |
| CCGCTAAA | -0.195 |
| CCCAGCCC | -0.0154 |
| AAGTATCG | -0.106 |
| GGATCCAA | 0.12 |
| AAAGTTGC | -0.0908 |
| TACCGTCA | -0.0775 |
| TAGCTCAA | -0.121 |
| AGGGCCCC | -0.138 |
| TGAGCGCA | -0.167 |
| CGCCCAGA | -0.2 |
| ACCGTTTG | -0.0651 |
| AGGGGTCC | -0.317 |
| CCTGGCGA | -0.0108 |
| CAACAGGC | -0.141 |
| AATCCAGT | -0.0248 |
| CCTTAGGA | -0.0162 |
| TATTTCAA | -0.0437 |
| AGGTCTTG | -0.193 |

From the supplement of paper PMC3334620
